We go through 91 molecules from PubChem BioAssay AID360 (National Center for Advancing Translational Sciences (NCATS), 2006).

Out of some 48,000 compounds screened, about 550 (1.1%) were called active. About 4% were inconclusive and are not listed. No stated cut-off is given here; in the data, active means potency below about 15 µM; inconclusive means mostly about 16 µM to 33 µM; inactive means weaker than that. Some of the results follow.
Potency means the concentration at half of the fitted maximal effect.

The assay concerns the target Lysosomal acid glucosylceramidase (Homo sapiens) (UniProt P04062). The experiment in a line: Glucocerebrosidase.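 Further: the screen sought inhibitors.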 The conditions noted are these: purified enzyme, resorufin glucoside fluorescence (screen aimed at inhibitors), 20 min. The essentials: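 Compounds titrated against 0.2 nM normal enzyme, 30 uM resorufin beta-D-glucopyranoside substrate, citrate/phosphate buffer with taurocholate and tween-20, pH 5.9. Reaction ran 20 min at room temperature; fluorescence (Ex 548/Em 600) gave AC50.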
UniProt P04062, sequence (P04062 whole entry, looked up): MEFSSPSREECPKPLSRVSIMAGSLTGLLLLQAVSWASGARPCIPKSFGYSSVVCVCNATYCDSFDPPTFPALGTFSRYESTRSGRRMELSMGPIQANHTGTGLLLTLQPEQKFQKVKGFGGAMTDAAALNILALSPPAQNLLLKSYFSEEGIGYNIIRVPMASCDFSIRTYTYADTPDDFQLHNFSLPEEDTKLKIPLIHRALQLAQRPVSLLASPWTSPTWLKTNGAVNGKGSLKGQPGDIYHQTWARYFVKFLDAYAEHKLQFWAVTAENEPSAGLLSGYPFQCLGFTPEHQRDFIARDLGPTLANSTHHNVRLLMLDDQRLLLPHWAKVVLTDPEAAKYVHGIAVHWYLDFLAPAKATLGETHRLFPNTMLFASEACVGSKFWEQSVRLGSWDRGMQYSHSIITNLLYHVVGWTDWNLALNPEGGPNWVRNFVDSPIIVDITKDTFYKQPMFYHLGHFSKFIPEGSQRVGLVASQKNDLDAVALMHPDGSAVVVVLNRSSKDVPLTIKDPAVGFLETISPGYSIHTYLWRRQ
Regarding `COc1ccc(C2c3c(oc4ccccc4c3=O)C(=O)N2Cc2ccncc2)cc1OC` (stereo unspecified), the Potency was inactive: > 76.9 µM.
For `Cc1ccc(C2CC(C(F)F)n3ncc(C(=O)Nc4cnn(Cc5ccccc5C)c4)c3N2)cc1` (stereo unspecified) the value was inactive: > 76.9 µM; for `C=C(C)CSc1nc(N)c(C#N)c(-c2ccc(C)cc2)c1C#N`, inactive: > 76.9 µM; for `C=CCC(=O)OCC(=O)Nc1ccc(Oc2ccccc2)cc1`, inactive: > 76.9 µM.
For `CC1CCC2(CC1)NC(=O)c1ccccc1O2` (stereo unspecified) the value was inactive: > 76.9 µM; for `CC(=O)C1=C(O)C(=O)N(Cc2cccnc2)C1c1ccc(Cl)cc1Cl` (stereo unspecified), inactive: > 76.9 µM; for `CC(Sc1nc(NCc2ccccc2)nc(N2CCOCC2)n1)C(=O)Nc1ccccc1` (stereo unspecified), inactive: > 76.9 µM.
For `COc1ccc(-c2c3c(=O)n(C)c(=O)n(C)c3cn2Cc2cccnc2)cc1` the value was inactive: > 76.9 µM.
For `C/C=C/c1ccc(OCCCCN2C(=O)NC(C)(C)C2=O)c(OC)c1`, the Potency was inactive: > 76.9 µM.
The result for `Cc1nc2nc(-c3ccccc3)nn2c(C)c1Cl` reads inactive: > 76.9 µM; that for `COc1ccc(C2C3=C(CCCC3=O)Nc3nc(SCc4ccccc4)nn32)cc1OC` (stereo unspecified), inactive: > 76.9 µM; that for `CC1Cc2ccccc2N1C(=O)COc1nc2ccccc2nc1N1CCOCC1` (stereo unspecified), inactive: > 76.9 µM.
For `O=C(COc1ccccc1O)Nc1ccccc1Cl` the value was inactive: > 76.9 µM.
The result for `O=C(CNC(=O)c1ccco1)NCCCc1ccccc1` reads inactive: > 76.9 µM; that for `COc1ccc(C(=O)NCCc2nnc(SCc3nc4ccccc4c(=O)[nH]3)n2C)cc1`, inactive: > 76.9 µM; that for `COc1ccc(CC(=O)NCc2nnc(SCC(=O)N3CCN(c4ccccc4)CC3)n2C)cc1`, inactive: > 76.9 µM.
With `O=C(NCC1CCCO1)C1CCN(CC2CCCCC2)CC1` (stereo unspecified), the Potency was inactive: > 76.9 µM.
For `CCc1ccc(Nc2cc(=O)n(C3CCCCC3)c(=O)[nH]2)cc1` the value was inactive: > 76.9 µM; for `O=C(COc1ccc(Cl)cc1)Nc1ccc2oc(-c3ccncc3)nc2c1`, inactive: > 76.9 µM; for `COc1ccc(N(C)S(=O)(=O)c2ccc3c(c2)oc(=O)n3C)cc1`, inactive: > 76.9 µM.
For `CCOC(=O)CSc1nc2cc(C(=O)NCC3CCCO3)ccc2c(=O)n1Cc1ccco1` (stereo unspecified) the value was inactive: > 76.9 µM; for `COC(=O)C(NC(=O)c1ccco1)(Nc1nc(C2CC2)cs1)C(F)(F)F` (stereo unspecified), inactive: > 76.9 µM; for `Cc1ccc(-c2nn(-c3ccccc3)cc2/C=C(\C#N)c2cccc(C#N)c2)o1`, inactive: > 76.9 µM.
As for `O=C(OCC(=O)N1CCc2ccccc21)c1ccccc1`, the Potency was inactive: > 76.9 µM.
With `O=c1[nH]n(-c2cccc3cccnc23)c(=O)c2ccccc12`, the Potency was inactive: > 76.9 µM.
The result for `O=C(Cn1nnc2ccccc2c1=O)Nc1ccc2c(c1)CCC2` reads inactive: > 76.9 µM.
As for `COc1nc(Nc2cccc(C)c2)nc(N2CCCCC2)n1`, the Potency was inactive: > 76.9 µM.
For `COC(=O)c1cc2nc(-c3ccccc3)cc(C)n2n1` the value was inactive: > 76.9 µM; for `CC1(C)CC(C(CC(=O)O)c2ccccc2)CCO1` (stereo unspecified), inactive: > 76.9 µM.
The result for `Cc1cc(-c2ccccc2)nc(SCc2ccc(C(=O)O)o2)n1` reads inactive: > 76.9 µM; that for `COc1ccc2nc(Nc3nc(C)c(CCC(C)C)c(=O)[nH]3)nc(C)c2c1`, inactive: > 76.9 µM.
The result for `O=C(O)C1C2C=CC(C2)C1C(=O)NCc1ccccn1` (stereo unspecified) reads inactive: > 76.9 µM; that for `Cc1cc(C(F)F)n2nc(C(=O)Nc3ccccc3F)nc2n1`, inactive: > 76.9 µM; that for `COc1ccccc1CNS(=O)(=O)c1ccc(NC(C)=O)cc1`, inactive: > 76.9 µM.
For the molecule `Cc1nn(-c2ccccc2)c2sc(-c3n[nH]c(=S)o3)cc12`, the Potency was inactive: > 15.4 µM.
The result for `COc1ccc(S(=O)(=O)N2CCN(c3ccccc3OC)CC2)cc1OC` reads inactive: > 76.9 µM.
For `CCOC(=O)c1c(-c2ccccc2)csc1NC(=O)c1nn(CC)cc1Br` the value was inactive: > 76.9 µM; for `CCC(C)N(C(=O)COC(=O)c1[nH]c(C)c(C(C)=O)c1C)C1CCS(=O)(=O)C1` (stereo unspecified), inactive: > 76.9 µM; for `CC(=O)N(Cc1cc2c(C)cc(C)cc2[nH]c1=O)C1CCCCC1`, inactive: > 76.9 µM.
The result for `NS(=O)(=O)c1ccc(CCNC(=O)c2ccccc2F)cc1` reads inactive: > 76.9 µM; that for `O=C(CCCn1c(=O)[nH]c2ccsc2c1=O)N1CCN(c2ccccn2)CC1`, inactive: > 76.9 µM.
Turning to `Cn1ccnc1SCC(=O)NC1CCCCC1`, the Potency was inactive: > 76.9 µM.
For `Cn1c(CSc2nnc(SCc3ccccc3)s2)nc2ccccc21` the value was inactive: > 76.9 µM.
For `Cc1onc(-c2c(Cl)cccc2Cl)c1C(=O)NCc1ccco1` the value was inactive: > 76.9 µM; for `Cc1ccccc1Cn1nc(C)c(NC(=O)c2nc3n(n2)C(C(F)F)CC(C)N3)c1C` (stereo unspecified), inactive: > 76.9 µM.
For `O=C1c2ccccc2C(=O)N1n1c(=O)[nH]c2ccccc2c1=O` the value was inactive: > 76.9 µM; for `O=C(CN1C(=O)CSC1=O)Nc1ccc(N2CCOCC2)cc1`, inactive: > 76.9 µM; for `CCOC(=O)N1CCN(c2nnnn2-c2ccccc2)CC1`, inactive: > 76.9 µM.
Regarding `Cc1cc(C)n(S(=O)(=O)c2ccc(C(C)(C)C)cc2)n1`, the Potency is inactive: > 76.9 µM.
The result for `COc1ccc(C(=O)N(CN2CCCC2=O)c2nccs2)cc1OC` reads inactive: > 76.9 µM.
In the case of `Cc1ccc(NS(=O)(=O)c2cccc(C(=O)N3CCOCC3)c2)cc1`, the Potency was inactive: > 76.9 µM.
The result for `CC1(C)CC(=O)C2=C(C1)Oc1ncn3nc(-c4cccnc4)nc3c1C2c1ccccc1` (stereo unspecified) reads inactive: > 76.9 µM.
For `CCSC1=C(C#N)C(c2cccc(OC)c2)CC(=O)N1` (stereo unspecified) the value was inactive: > 76.9 µM.
The result for `CCOC(=O)N1CCC(C(N)=O)CC1` reads inactive: > 76.9 µM; that for `CCN(CCCNC(=O)CN1C(=O)COc2ccccc21)c1cccc(C)c1`, inactive: > 76.9 µM.
For the molecule `CC(C)[C@H](NC(=O)NCc1ccco1)C(=O)O`, the Potency was inactive: > 76.9 µM.
The result for `O=C(NCc1ccco1)C1CCCN(S(=O)(=O)c2ccc(-n3cnnn3)cc2)C1` (stereo unspecified) reads “inactive”; that for `O=C(Oc1ccc(-c2ccccc2)cc1)N1CCCCC1`, inactive: > 76.9 µM.
For the molecule `CC1CCCN(C(=O)Cn2c(=O)oc3ccccc32)C1` (stereo unspecified), the Potency is inactive: > 76.9 µM.
The result for `CCC1CCCCN1C(=O)CSc1nnc(-c2ccc3c(c2)OCCO3)o1` (stereo unspecified) reads inactive: > 76.9 µM; that for `Cc1ccc(CNC(=O)CSc2nc3ccccc3c(=O)n2CCCO)cc1`, inactive: > 76.9 µM; that for `CCOC(=O)c1cc(C)[nH]c(=S)c1C#N`, inactive: > 76.9 µM.
For `CC1CN(S(=O)(=O)Cc2ccccc2)CC(C)O1` (stereo unspecified), the Potency was inactive: > 76.9 µM.
As to `O=C(Nc1ccc(N2CCN(Cc3ccccc3)CC2)cc1)c1ncn[nH]1`, the Potency is inactive: > 76.9 µM.
As to `O=C1c2ccccc2C(=O)N1CCC(=O)N1CCc2ccccc21`, the Potency was inactive: > 76.9 µM.
The result for `CSCCC(NC(=O)c1ccccc1)C(=O)NC1CCCC1` (stereo unspecified) reads inactive: > 76.9 µM; that for `O=C(OCC(O)CN1CCCCC1)C12CC3CC(CC(C3)C1)C2` (stereo unspecified), inactive: > 76.9 µM.
For `O=C1NC(Nc2ccccn2)(C(F)(F)F)C(=O)N1c1ccc(F)cc1` (stereo unspecified) the value was “inactive”; for `COc1cc(/C=C/C2=NC(=O)C(C)(C)O2)ccc1O`, inactive: > 76.9 µM.
Turning to `O=C1C(c2ccc(F)cc2)N(Cc2ccc3c(c2)OCO3)C(=O)CN1C1CCCCC1` (stereo unspecified), the Potency is inactive: > 76.9 µM.
The result for `Cc1ccc(OCCN2C(=O)c3ccccc3C2=O)c(C)c1` reads inactive: > 76.9 µM; that for `Cc1ccc(-c2nnc3c4ccccc4c(C)nn23)cc1NC(=O)c1ccco1`, inactive: > 76.9 µM; that for `c1ccc(-n2ncc3c2ncn2nc(CSc4nc5ccccc5s4)nc32)cc1`, inactive: > 76.9 µM.
With `COCCNC(=O)c1ccc(Cn2c(=S)[nH]c3cc4c(cc3c2=O)OCO4)cc1`, the Potency is inactive: > 76.9 µM.
Take `CCCC(=O)Nc1ccccc1N1CCN(C(=O)C(C)C)CC1`: the Potency is inactive: > 76.9 µM.
For `Cc1ccc(Nc2nc(Oc3ccc(=O)[nH]n3)nc(N(C)C)n2)cc1` the value was inactive: > 76.9 µM; for `COc1cccc(C2NC(=O)c3ccccc3O2)c1OC` (stereo unspecified), inactive: > 76.9 µM; for `O=C(CCn1c(=O)sc2ccccc21)NCc1ccc2c(c1)OCO2`, inactive: > 76.9 µM.
For `COc1cc(-n2nnnc2SCC(=O)N2CCN(c3ccc(F)cc3)CC2)c(OC)cc1Cl` the value was inactive: > 76.9 µM.
With `Cc1ccc(Cc2cncc(O)c2)cc1S(=O)(=O)O`, the Potency is inactive: > 76.9 µM.
As to `Cn1c(CCN2CCN(c3ccc(F)cc3)CC2)nc2cc(NC(=O)c3ccco3)ccc21`, the Potency is inactive: > 76.9 µM.
For the molecule `C=CCSc1nnc(-c2c[nH]c3ccccc23)n1CCOC`, the Potency was inactive: > 76.9 µM.
The result for `CC(=O)N=c1sc(C(C)(C)C)c(C)n1C` reads inactive: > 76.9 µM.
The result for `COCc1cc(C)nc2sc(C(=O)OC)c(N)c12` reads inactive: > 76.9 µM; that for `O=C(O)C1=C(C(=O)N2CCN(C(=O)c3ccco3)CC2)CCCC1`, inactive: > 76.9 µM.
For the molecule `CCCC(C(=O)NCc1ccc(OC)cc1)N(Cc1ccco1)C(=O)c1snc(C(N)=O)c1N` (stereo unspecified), the Potency was inactive: > 76.9 µM.
Regarding `O=C(c1ccc2c(c1)OCCO2)C1CCN(C(=O)c2ccc(F)c(F)c2)CC1`, the Potency is inactive: > 76.9 µM.
The result for `COC(=O)c1ccccc1NC(=O)C1CC(=O)N(C2CCCCC2)C1` (stereo unspecified) reads inactive: > 76.9 µM; that for `N#Cc1ccsc1NC(=O)CSc1ncnc2ccccc12`, inactive: > 76.9 µM; that for `O=C(CSc1nnnn1C1CCCC1)N1CCN(C(=O)c2ccco2)CC1`, inactive: > 76.9 µM.
Take `O=C(Oc1ccc(N2C(=O)CCC2=O)cc1)c1ccco1`: the Potency is inactive: > 76.9 µM.
